Measurements as given in the supplement of paper PMC8728848.
Some of the results follow.

Columns and labels:
Assay in all cases: glycan array binding signal (z-score within array); higher = stronger binding
Settings in all cases: glycan notation: IUPAC condensed, linker removed
Glc(b1-6)Glc = molecular target: Glc(b1-6)Glc
Method in brief: (§1)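 Arrays were curated from the Consortium for Functional Glycomics database, 3228 in total, and kept only where the protein sequence was available. Binding is expressed as a within-array Z-score. This score was averaged across arrays of the same protein sequence at different concentrations or buffers and across linkers, and negative values can be read as non-binding.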

GlcA(b1-3)Gal = molecular target: GlcA(b1-3)Gal
Method in brief: as §1

GlcA(b1-3)GlcNAc = molecular target: GlcA(b1-3)GlcNAc
Method in brief: as §1

GlcA(b1-6)Gal = molecular target: GlcA(b1-6)Gal
Method in brief: as §1

[1] = molecular target: GlcA3S(b1-3)Gal(b1-4)GlcNAc(b1-2)Man
Method in brief: as §1

[2] = molecular target: GlcA3S(b1-3)Gal(b1-4)GlcNAc(b1-3)Gal(b1-4)Glc
Method in brief: as §1

[3] = molecular target: GlcNAc(a1-3)Gal(b1-4)GlcNAc
Method in brief: as §1

[4] = molecular target: GlcNAc(a1-4)Gal(b1-3)GlcNAc
Method in brief: as §1

[5] = molecular target: GlcNAc(a1-4)Gal(b1-4)GalNAc
Method in brief: as §1

[6] = molecular target: GlcNAc(a1-4)Gal(b1-4)GlcNAc
Method in brief: as §1

[7] = molecular target: GlcNAc(a1-4)Gal(b1-4)GlcNAc(b1-3)Gal(b1-4)Glc
Method in brief: as §1

[8] = molecular target: GlcNAc(a1-4)Gal(b1-4)GlcNAc(b1-3)Gal(b1-4)GlcNAc
Method in brief: as §1

[9] = molecular target: GlcNAc(a1-4)Gal(b1-4)GlcNAc(b1-3)Gal(b1-4)GlcNAc(b1-3)Gal(b1-4)GlcNAc
Method in brief: as §1

[10] = molecular target: GlcNAc(a1-4)Gal(b1-4)GlcNAc(b1-3)Gal(b1-4)[Fuc(a1-3)]GlcNAc(b1-3)Gal(b1-4)[Fuc(a1-3)]GlcNAc
Method in brief: as §1

[11] = molecular target: GlcNAc(a1-6)Gal(b1-4)GlcNAc
Method in brief: as §1

[12] = molecular target: GlcNAc(b1-2)Gal(b1-3)GalNAc
Method in brief: as §1

[13] = molecular target: GlcNAc(b1-2)Man(a1-3)[GlcNAc(b1-2)Man(a1-6)]Man(b1-4)GlcNAc(b1-4)GlcNAc
Method in brief: as §1

[14] = molecular target: GlcNAc(b1-2)Man(a1-3)[GlcNAc(b1-2)Man(a1-6)]Man(b1-4)GlcNAc(b1-4)[Fuc(a1-6)]GlcNAc
Method in brief: as §1

[15] = molecular target: GlcNAc(b1-2)Man(a1-3)[GlcNAc(b1-4)][GlcNAc(b1-2)Man(a1-6)]Man(b1-4)GlcNAc(b1-4)GlcNAc
Method in brief: as §1

[16] = molecular target: GlcNAc(b1-2)Man(a1-3)[GlcNAc(b1-4)][GlcNAc(b1-2)Man(a1-6)]Man(b1-4)GlcNAc(b1-4)[Fuc(a1-6)]GlcNAc
Method in brief: as §1

[17] = molecular target: GlcNAc(b1-2)[GlcNAc(b1-4)]Man(a1-3)[GlcNAc(b1-2)Man(a1-6)]Man(b1-4)GlcNAc(b1-4)GlcNAc
Method in brief: as §1

[18] = molecular target: GlcNAc(b1-2)[GlcNAc(b1-4)]Man(a1-3)[GlcNAc(b1-4)][GlcNAc(b1-2)Man(a1-6)]Man(b1-4)GlcNAc(b1-4)GlcNAc
Method in brief: as §1

[19] = molecular target: GlcNAc(b1-2)[GlcNAc(b1-4)]Man(a1-3)[GlcNAc(b1-4)][GlcNAc(b1-2)[GlcNAc(b1-6)]Man(a1-6)]Man(b1-4)GlcNAc(b1-4)GlcNAc
Method in brief: as §1

[20] = molecular target: GlcNAc(b1-2)[GlcNAc(b1-4)]Man(a1-3)[GlcNAc(b1-4)][GlcNAc(b1-2)[GlcNAc(b1-6)]Man(a1-6)]Man(b1-4)GlcNAc(b1-4)[Fuc(a1-6)]GlcNAc
Method in brief: as §1

[21] = molecular target: GlcNAc(b1-2)[GlcNAc(b1-6)]Man(a1-6)[GlcNAc(b1-2)Man(a1-3)]Man(b1-4)GlcNAc(b1-4)GlcNAc
Method in brief: as §1

[22] = molecular target: GlcNAc(b1-2)[GlcNAc(b1-6)]Man(a1-6)[GlcNAc(b1-2)Man(a1-3)]Man(b1-4)GlcNAc(b1-4)[Fuc(a1-6)]GlcNAc
Method in brief: as §1

[23] = molecular target: GlcNAc(b1-2)[GlcNAc(b1-6)]Man(a1-6)[GlcNAc(b1-4)][GlcNAc(b1-2)Man(a1-3)]Man(b1-4)GlcNAc(b1-4)GlcNAc
Method in brief: as §1

GlcNAc(b1-3)Fuc = molecular target: GlcNAc(b1-3)Fuc
Method in brief: as §1

GlcNAc(b1-3)Gal = molecular target: GlcNAc(b1-3)Gal
Method in brief: as §1

[24] = molecular target: GlcNAc(b1-3)Gal(b1-3)GalNAc
Method in brief: as §1

GlcNAc(b1-3)Gal(b1-4)Glc = molecular target: GlcNAc(b1-3)Gal(b1-4)Glc
Method in brief: as §1

[25] = molecular target: GlcNAc(b1-3)Gal(b1-4)GlcNAc
Method in brief: as §1

[26] = molecular target: GlcNAc(b1-3)Gal(b1-4)GlcNAc(b1-2)Man(a1-3)[GlcNAc(b1-3)Gal(b1-4)GlcNAc(b1-2)Man(a1-6)]Man(b1-4)GlcNAc(b1-4)GlcNAc
Method in brief: as §1

[27] = molecular target: GlcNAc(b1-3)Gal(b1-4)GlcNAc(b1-2)Man(a1-3)[GlcNAc(b1-3)Gal(b1-4)GlcNAc(b1-2)Man(a1-6)]Man(b1-4)GlcNAc(b1-4)[Fuc(a1-6)]GlcNAc
Method in brief: as §1

[28] = molecular target: GlcNAc(b1-3)Gal(b1-4)GlcNAc(b1-2)[GlcNAc(b1-3)Gal(b1-4)GlcNAc(b1-6)]Man(a1-6)[GlcNAc(b1-3)Gal(b1-4)GlcNAc(b1-2)Man(a1-3)]Man(b1-4)GlcNAc(b1-4)GlcNAc
Method in brief: as §1

[29] = molecular target: GlcNAc(b1-3)Gal(b1-4)GlcNAc(b1-3)Gal(b1-4)GlcNAc
Method in brief: as §1

[30] = molecular target: GlcNAc(b1-3)Gal(b1-4)GlcNAc(b1-3)Gal(b1-4)GlcNAc(b1-2)Man(a1-3)[GlcNAc(b1-3)Gal(b1-4)GlcNAc(b1-3)Gal(b1-4)GlcNAc(b1-2)Man(a1-6)]Man(b1-4)GlcNAc(b1-4)GlcNAc
Method in brief: as §1

[31] = molecular target: GlcNAc(b1-3)Gal(b1-4)GlcNAc(b1-3)Gal(b1-4)GlcNAc(b1-2)Man(a1-3)[GlcNAc(b1-3)Gal(b1-4)GlcNAc(b1-3)Gal(b1-4)GlcNAc(b1-2)Man(a1-6)]Man(b1-4)GlcNAc(b1-4)[Fuc(a1-6)]GlcNAc
Method in brief: as §1

[32] = molecular target: GlcNAc(b1-3)Gal(b1-4)GlcNAc(b1-3)Gal(b1-4)GlcNAc(b1-2)[GlcNAc(b1-3)Gal(b1-4)GlcNAc(b1-3)Gal(b1-4)GlcNAc(b1-6)]Man(a1-6)[GlcNAc(b1-3)Gal(b1-4)GlcNAc(b1-3)Gal(b1-4)GlcNAc(b1-2)Man(a1-3)]Man(b1-4)GlcNAc(b1-4)[Fuc(a1-6)]GlcNAc
Method in brief: as §1

[33] = molecular target: GlcNAc(b1-3)Gal(b1-4)GlcNAc(b1-3)Gal(b1-4)GlcNAc(b1-3)Gal(b1-4)GlcNAc(b1-2)Man(a1-3)[GlcNAc(b1-3)Gal(b1-4)GlcNAc(b1-3)Gal(b1-4)GlcNAc(b1-3)Gal(b1-4)GlcNAc(b1-2)Man(a1-6)]Man(b1-4)GlcNAc(b1-4)GlcNAc
Method in brief: as §1

[34] = molecular target: GlcNAc(b1-3)Gal(b1-4)GlcNAc(b1-3)Gal(b1-4)GlcNAc(b1-3)Gal(b1-4)GlcNAc(b1-2)Man(a1-3)[GlcNAc(b1-3)Gal(b1-4)GlcNAc(b1-3)Gal(b1-4)GlcNAc(b1-3)Gal(b1-4)GlcNAc(b1-2)Man(a1-6)]Man(b1-4)GlcNAc(b1-4)[Fuc(a1-6)]GlcNAc
Method in brief: as §1

[35] = molecular target: GlcNAc(b1-3)Gal(b1-4)GlcNAc(b1-3)Gal(b1-4)GlcNAc(b1-3)Gal(b1-4)GlcNAc(b1-2)[GlcNAc(b1-3)Gal(b1-4)GlcNAc(b1-3)Gal(b1-4)GlcNAc(b1-3)Gal(b1-4)GlcNAc(b1-6)]Man(a1-6)[GlcNAc(b1-3)Gal(b1-4)GlcNAc(b1-3)Gal(b1-4)GlcNAc(b1-3)Gal(b1-4)GlcNAc(b1-2)Man(a1-3)]Man(b1-4)GlcNAc(b1-4)[Fuc(a1-6)]GlcNAc
Method in brief: as §1

[36] = molecular target: GlcNAc(b1-3)Gal(b1-4)GlcNAc(b1-3)Gal(b1-4)GlcNAc(b1-3)Gal(b1-4)GlcNAc(b1-3)Gal(b1-4)GlcNAc(b1-2)Man(a1-3)[GlcNAc(b1-3)Gal(b1-4)GlcNAc(b1-3)Gal(b1-4)GlcNAc(b1-3)Gal(b1-4)GlcNAc(b1-3)Gal(b1-4)GlcNAc(b1-2)Man(a1-6)]Man(b1-4)GlcNAc(b1-4)GlcNAc
Method in brief: as §1

[37] = molecular target: GlcNAc(b1-3)Gal(b1-4)GlcNAc(b1-3)Gal(b1-4)GlcNAc(b1-3)Gal(b1-4)GlcNAc(b1-3)Gal(b1-4)GlcNAc(b1-2)Man(a1-3)[GlcNAc(b1-3)Gal(b1-4)GlcNAc(b1-3)Gal(b1-4)GlcNAc(b1-3)Gal(b1-4)GlcNAc(b1-3)Gal(b1-4)GlcNAc(b1-2)Man(a1-6)]Man(b1-4)GlcNAc(b1-4)[Fuc(a1-6)]GlcNAc
Method in brief: as §1

[38] = molecular target: GlcNAc(b1-3)Gal(b1-4)GlcNAc(b1-3)Gal(b1-4)GlcNAc(b1-3)Gal(b1-4)GlcNAc(b1-3)Gal(b1-4)GlcNAc(b1-2)[GlcNAc(b1-3)Gal(b1-4)GlcNAc(b1-3)Gal(b1-4)GlcNAc(b1-3)Gal(b1-4)GlcNAc(b1-3)Gal(b1-4)GlcNAc(b1-6)]Man(a1-6)[GlcNAc(b1-3)Gal(b1-4)GlcNAc(b1-3)Gal(b1-4)GlcNAc(b1-3)Gal(b1-4)GlcNAc(b1-3)Gal(b1-4)GlcNAc(b1-2)Man(a1-3)]Man(b1-4)GlcNAc(b1-4)[Fuc(a1-6)]GlcNAc
Method in brief: as §1

B1: Als3-2 (Candida albicans) (protein)
chain: KTITGVFNSFNSLTWSNAATYNYKGPGTPTWNAVLGWSLDGTSASPGDTFTLNMPCVFKFTTSQTSVDLTAHGVKYATCQFQAGEEFMTFSTLTCTVSNTLTPSIKALGTVTLPLAFNVGGTGSSVDLEDSKCFTAGTNTVTFNDGGKKISINVDFERSNVDPKGYLTD
Glc(b1-6)Glc
  glycan array binding signal (z-score): -0.611
GlcA(b1-3)Gal
  glycan array binding signal (z-score): -0.578
GlcA(b1-3)GlcNAc
  glycan array binding signal (z-score): -0.317
GlcA(b1-6)Gal
  glycan array binding signal (z-score): -0.466
[1]
  glycan array binding signal (z-score): -0.554
[2]
  glycan array binding signal (z-score): 1.02
[3]
  glycan array binding signal (z-score): -0.564
[4]
  glycan array binding signal (z-score): -0.692
[5]
  glycan array binding signal (z-score): -0.091
[6]
  glycan array binding signal (z-score): -0.712
[7]
  glycan array binding signal (z-score): -0.724
[8]
  glycan array binding signal (z-score): -0.427
[9]
  glycan array binding signal (z-score): -0.62
[10]
  glycan array binding signal (z-score): -0.426
[11]
  glycan array binding signal (z-score): 0.311
[12]
  glycan array binding signal (z-score): -0.581
[13]
  glycan array binding signal (z-score): -0.617
[14]
  glycan array binding signal (z-score): -0.058
[15]
  glycan array binding signal (z-score): -0.374
[16]
  glycan array binding signal (z-score): -0.63
[17]
  glycan array binding signal (z-score): -0.603
[18]
  glycan array binding signal (z-score): -0.609
[19]
  glycan array binding signal (z-score): -0.57
[20]
  glycan array binding signal (z-score): -0.664
[21]
  glycan array binding signal (z-score): -0.527
[22]
  glycan array binding signal (z-score): -0.54
[23]
  glycan array binding signal (z-score): -0.7
GlcNAc(b1-3)Fuc
  glycan array binding signal (z-score): 1.12
GlcNAc(b1-3)Gal
  glycan array binding signal (z-score): -0.723
[24]
  glycan array binding signal (z-score): -0.354
GlcNAc(b1-3)Gal(b1-4)Glc
  glycan array binding signal (z-score): -0.379
[25]
  glycan array binding signal (z-score): -0.583
[26]
  glycan array binding signal (z-score): -0.5
[27]
  glycan array binding signal (z-score): -0.562
[28]
  glycan array binding signal (z-score): -0.296
[29]
  glycan array binding signal (z-score): -0.478
[30]
  glycan array binding signal (z-score): 1.02
[31]
  glycan array binding signal (z-score): 1.17
[32]
  glycan array binding signal (z-score): 0.939
[33]
  glycan array binding signal (z-score): -0.47
[34]
  glycan array binding signal (z-score): -0.435
[35]
  glycan array binding signal (z-score): 0.484
[36]
  glycan array binding signal (z-score): -0.006
[37]
  glycan array binding signal (z-score): 3.13
[38]
  glycan array binding signal (z-score): -0.036
